According to PMC7819943, “Rice protein-binding microarrays: a tool to detect cis-acting elements near promoter regions in rice”:
The other results are listed elsewhere or left out.

These sequences were tested against T1, OsWOX13 (Oryza sativa, UniProt Q5QMM3 1-267) (assay: protein-binding microarray (RPBM); PBS, 2% BSA, 51.3 ng/ul salmon testes DNA, 50 uM zinc acetate, 200 nM TF, 25 C, 1 h; high values mean tight binding). Details: protein: recombinant; tags: N-terminal polyhistidine and DsRed monomer fusion (pET32a); label: CyDye5-dUTP incorporated in the synthesized complementary strand; 3' TTTTT single-stranded linker to array surface; dsDNA, one strand shown.
T1 sequence: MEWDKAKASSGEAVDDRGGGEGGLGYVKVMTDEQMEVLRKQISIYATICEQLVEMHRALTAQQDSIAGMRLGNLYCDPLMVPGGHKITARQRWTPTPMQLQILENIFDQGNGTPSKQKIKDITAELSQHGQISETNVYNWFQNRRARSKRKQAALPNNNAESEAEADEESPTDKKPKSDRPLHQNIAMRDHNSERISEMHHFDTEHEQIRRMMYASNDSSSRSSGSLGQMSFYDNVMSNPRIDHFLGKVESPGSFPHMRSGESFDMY
Summary of the method: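 An Axon 4000B scanner gave the binding signal as per-feature fluorescence intensity in arbitrary units. This followed washing of a custom Agilent array that had been incubated for 1 h at 25 °C with 200 nM protein in PBS, 2% BSA, salmon testes DNA and 50 µM zinc acetate. The proteins were transcription factors fused at the N-terminus to polyhistidine and DsRed, expressed in E. coli BL21-CodonPlus and purified on Ni–NTA.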

Sequence	binding signal
TTAATTATTTTATCTAATTTATAAGTTATTTATTCATCATCGGAGTCACCTAGTGCAG	13400 fluorescence intensity (a.u.)
TTATGATTTTCATATAAATCAAATGGGACTTTAATTAATCCGGAGTCACCTAGTGCAG	11500 fluorescence intensity (a.u.)
CTTGGCTGAAACAAATCAATTAACATCACAAACAGGAGAACGGAGTCACCTAGTGCAG	11300 fluorescence intensity (a.u.)
GGGATTGGTGTGGATTGGGTGGAGAATTACTCCCACCCCGCGGAGTCACCTAGTGCAG	24500 fluorescence intensity (a.u.)
GAATTTAGGACCAGTCACTAATTAACTATATAGTATATATCGGAGTCACCTAGTGCAG	3600 fluorescence intensity (a.u.)
ATATTGATTAAGCATAAGCAGGTCGGCTCTTTGACCAAACCGGAGTCACCTAGTGCAG	14300 fluorescence intensity (a.u.)
AGTGATCATTGATCTAAACTACTTGCAGGTGACGCACACGCGGAGTCACCTAGTGCAG	6200 fluorescence intensity (a.u.)
ATTAATTAATTAATTAATTAATTAATACTCCTCTCTTCCACGGAGTCACCTAGTGCAG	65500 fluorescence intensity (a.u.)
ACTCGAAATTTGTTGGTAGGATTAGTGAATAGAGACGGTGCGGAGTCACCTAGTGCAG	3210 fluorescence intensity (a.u.)
TTTAAGGGGCAATGAATCTGTAATTGAAAGCATGGTTTCACGGAGTCACCTAGTGCAG	5480 fluorescence intensity (a.u.)
TCCTTAAATATCGGGCAATCATCGTCACACACAGTGACAGCGGAGTCACCTAGTGCAG	3610 fluorescence intensity (a.u.)
ATTTTGACTGATGTGACGTTTGCGTGGCTGGTTTGATTAGCGGAGTCACCTAGTGCAG	28900 fluorescence intensity (a.u.)
TCCCGGTAATTCCAATTCCAATTCCAATTCCAATTCATCTCGGAGTCACCTAGTGCAG	8480 fluorescence intensity (a.u.)
CCCCATTTGTAAATTGTGATTGGCTAGAGAAATTCAAACCCGGAGTCACCTAGTGCAG	23900 fluorescence intensity (a.u.)
CCAATTAAAATTTTCTTACTAAACTCTTACCCTCAATGATCGGAGTCACCTAGTGCAG	4890 fluorescence intensity (a.u.)
CAAATCAGTCAAATAGTCAAACAAAACACACACCACCAGCCGGAGTCACCTAGTGCAG	5890 fluorescence intensity (a.u.)
GGAGAGATTTATTGGATTAGCATCAGCAGCAAGGGCGGCGCGGAGTCACCTAGTGCAG	6020 fluorescence intensity (a.u.)
CCTGTGATTAACTAATCTCCCTTCTGCATATACAGCACCCCGGAGTCACCTAGTGCAG	48900 fluorescence intensity (a.u.)
TTTTACGATAATTTGATCAAATCATATATATGTATAGTAACGGAGTCACCTAGTGCAG	14700 fluorescence intensity (a.u.)
TGCGTGCATGATTAGTTATTACAGGTCGTCATTGATTGAGCGGAGTCACCTAGTGCAG	27800 fluorescence intensity (a.u.)
CATTAATCAATCTAAACGTGCAACCTCCCAACGTGCAAGCCGGAGTCACCTAGTGCAG	23800 fluorescence intensity (a.u.)

Sequence	binding signal
TTAAATTTAATTAAATTTAAAGCAGTTTGATTTTGACCAACGGAGTCACCTAGTGCAG	56000 fluorescence intensity (a.u.)
GGTCGATTGGATTCCCCTTCGCTGGCATCCGCTCGTCCAGCGGAGTCACCTAGTGCAG	3340 fluorescence intensity (a.u.)
AAGTATATTAACTAATTTAGTTAGTTAAGAGTAGACTAAACGGAGTCACCTAGTGCAG	5440 fluorescence intensity (a.u.)
AAGTTATTGATGTATGAGATTTATTTTGTTGGAAGATAATCGGAGTCACCTAGTGCAG	7910 fluorescence intensity (a.u.)
ATGATTTGAGTCAATAAGTGATGTATTTCCAGAGAGAGAACGGAGTCACCTAGTGCAG	29400 fluorescence intensity (a.u.)
GCATGATTACATCATTGCACTGGACTCAATTGGTAATGCACGGAGTCACCTAGTGCAG	20700 fluorescence intensity (a.u.)
TTCTGGAAATGGAGGATGATTTGCTGTGAGGATATAGTTGCGGAGTCACCTAGTGCAG	7980 fluorescence intensity (a.u.)
ATGCATGTTCAATTGATTGTCATGTTATGTTCATTATAGACGGAGTCACCTAGTGCAG	15100 fluorescence intensity (a.u.)
TAAATTAATTAGGCTTAATAAATTCGTCGACTACACTTAACGGAGTCACCTAGTGCAG	30000 fluorescence intensity (a.u.)
CTACTAATTTAGTATGATAGGTTTATTTTGGTAATCAAGCCGGAGTCACCTAGTGCAG	30000 fluorescence intensity (a.u.)
TTGATTATTTCAGTTCATGACTCGGCATAGCACCAGCAAACGGAGTCACCTAGTGCAG	7090 fluorescence intensity (a.u.)
AGTTCAGATAAGCATCATGATTGGTGTTCAGATATCCAGACGGAGTCACCTAGTGCAG	9740 fluorescence intensity (a.u.)
CTGGATTGATTGGGAGTGTTGGGTTTCGGGCTAGATCTGGCGGAGTCACCTAGTGCAG	65200 fluorescence intensity (a.u.)
TCTTCATTAATTGGACTAATTACAGATGGCTGTTTAGGAACGGAGTCACCTAGTGCAG	45300 fluorescence intensity (a.u.)
TATAATCAAAGGTAACTGTAATATTATTCAATTTAAAGCACGGAGTCACCTAGTGCAG	4560 fluorescence intensity (a.u.)
CCCTTAACTGACGGAGAGCGACGCCGCAACACCACATCCACGGAGTCACCTAGTGCAG	31700 fluorescence intensity (a.u.)
CTACATGTAATTTATATCAACATTCTAGTGAATAATCTTTCGGAGTCACCTAGTGCAG	3800 fluorescence intensity (a.u.)
CAAATCAATCCGTTTCATGCATCATCATCCTCCTGTCGATCGGAGTCACCTAGTGCAG	4790 fluorescence intensity (a.u.)
TGTTAATTAACCTTTACCTTGTGTGCACGACAACTCATACCGGAGTCACCTAGTGCAG	37100 fluorescence intensity (a.u.)
ACGAATCTAATGAGCCTAATTAATCCATGATTAGCCTATGCGGAGTCACCTAGTGCAG	21200 fluorescence intensity (a.u.)
TTTATATAATTTCAAATTTTGTTACAGCATCAAAGGTTATCGGAGTCACCTAGTGCAG	11200 fluorescence intensity (a.u.)
